Laboratory results published in PubChem BioAssay AID1030 (National Center for Advancing Translational Sciences (NCATS), 2008).
In all, about 220,000 compounds went through this assay and about 16,000 (7.3%) were called active. Inconclusive means that the source gave no clear call. Such entries were picked first, then a sample of the others. Calls come from the whole dose curve; as a rule, active = well fitted inhibition curve with a large enough effect (not every such curve was filed as active); inconclusive = small, poorly fitted or top-dose-only effect, or another doubt; inactive = no such curve, though single readings can be large or run the other way. Potencies of inconclusive entries are left out as doubtful fits.

Target: Aldehyde dehydrogenase 1A1 (Homo sapiens) (UniProt P00352)
Sequence of UniProt P00352 (P00352 whole entry, looked up): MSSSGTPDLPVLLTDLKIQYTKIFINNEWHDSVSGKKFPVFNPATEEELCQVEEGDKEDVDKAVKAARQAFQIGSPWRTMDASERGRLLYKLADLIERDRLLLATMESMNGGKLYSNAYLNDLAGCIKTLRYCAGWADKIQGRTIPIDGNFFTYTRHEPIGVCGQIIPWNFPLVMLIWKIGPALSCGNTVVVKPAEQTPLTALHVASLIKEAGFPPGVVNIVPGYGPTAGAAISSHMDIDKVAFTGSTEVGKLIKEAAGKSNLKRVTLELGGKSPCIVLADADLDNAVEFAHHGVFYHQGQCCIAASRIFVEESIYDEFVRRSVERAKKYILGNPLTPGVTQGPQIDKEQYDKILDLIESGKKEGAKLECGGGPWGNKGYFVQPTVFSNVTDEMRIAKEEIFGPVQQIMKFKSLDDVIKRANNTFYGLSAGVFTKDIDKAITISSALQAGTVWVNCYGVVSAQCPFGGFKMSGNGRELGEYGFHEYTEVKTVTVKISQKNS
Experiment: qHTS Assay for Inhibitors of Aldehyde Dehydrogenase 1 (ALDH1A1)
Settings: Purified ALDH1A1, NADH fluorescence, propionaldehyde substrate; series mostly up to 75.3 µM
Potency is the fitted concentration of half-maximal effect; tags give direction and shape of the fitted curve.

SMILES | Potency
COc1ccc(C(=O)Nc2ccc(C3(C#N)CCCC3)cc2)cc1 | active: 1.26 µM
O=C1N=C(N2CCN(c3ccccc3)CC2)S/C1=C/c1cccs1 | inconclusive [inhibitor, single point]
Cc1ccccc1NC(=O)CNc1ccccc1C(=O)NCc1ccco1 | inconclusive [inhibitor, partial curve]
O=C(c1ccc(CNS(=O)(=O)c2ccc(Br)cc2)cc1)N1CCCC1 | inconclusive [inhibitor, single point]
Cc1cccc2cc(COC(=O)C3CCCO3)c(=O)[nH]c12 (stereo not given) | inconclusive [inhibitor, single point]
COc1cccc(-c2nn(C)c3sc(C(=O)NCc4ccco4)cc23)c1 | inconclusive [inhibitor, partial curve]
O=c1oc2cc(OCc3nn[nH]n3)ccc2c2c1CCCC2 | inconclusive [inhibitor, partial curve]
CCc1ccc(NC(=O)N(CCCN2CCOCC2)C(C)c2cc3cccc(OC)c3o2)cc1 (stereo not given) | inconclusive [inhibitor, single point]
CCOC(=O)c1cc(-c2ccc(C)c([N+](=O)[O-])c2)nc2c1c(=O)n(C)c(=O)n2C | inconclusive [inhibitor, partial curve, poor fit]
NC(=O)c1cc[n+](CC2=C(C(=O)O)N3C(=O)[C@@H](NC(=O)[C@@H](c4ccccc4)S(=O)(=O)[O-])[C@H]3SC2)cc1 | inactive
O=[N+]([O-])c1ccc2ncnc(Nc3ccc4c(c3)OCCO4)c2c1 | active: 0.355 µM
O=C(NCCC1=CCCCC1)c1ccc(Cl)cc1 | inconclusive [inhibitor, partial curve, poor fit]
O=C(Nc1ccc(N2CCOCC2)c2nonc12)C1CCCC1 | inconclusive [inhibitor, single point]
CC(C)CCn1nnnc1C(c1ccc(N(C)C)cc1)N1CCN(C(=O)c2ccco2)CC1 (stereo not given) | inconclusive [inhibitor, single point]
COc1ccccc1-c1nc(-c2ccccn2)no1 | inactive
COc1cc(C(=S)N2CCC(C)CC2)ccc1O | active: 10 µM
NCC(O)COCCC12CC3CC(CC(C3)C1)C2 (stereo not given) | inconclusive [inhibitor, single point]
N#Cc1ccsc1NC(=O)CN1CCN(c2ccccn2)CC1 | inactive
Cc1ccc2c(c1)CCCN2C(=O)c1cccs1 | inconclusive [inhibitor, partial curve]
c1ccc(-c2nc3ccccc3c3nc4ccccc4n23)cc1 | inconclusive [inhibitor, single point]
Cc1ccc(NC(=O)Nc2ccc3c(c2)N(C)C(=O)CS3)cc1C | inactive
COCc1cc(=O)[nH]c(/N=C(\N)Nc2ccccc2C)n1 | inactive
Cc1ccc(S(=O)(=O)N(C)C)cc1NC(=O)c1cccnc1Oc1ccccc1 | active: 28.2 µM

SMILES | Potency
CC(=O)c1ccc(OC(=O)CCN2c3ccccc3Sc3ccccc32)cc1 | inconclusive [inhibitor, single point]
CCC(C)n1c(SC(C)C#N)nc2ccccc2c1=O (stereo not given) | inconclusive [inhibitor, partial curve]
Cc1ccc(S(=O)(=O)N2CCC(=O)N([C@H](COCc3ccccc3)Cc3ccccc3)CC2)cc1 | inconclusive [inhibitor, single point]
CC(SC#N)C(=O)C12CC3CC(CC(C3)C1)C2 (stereo not given) | active: 8.91 µM
CCOC(=O)Cc1csc(SCC(=O)Nc2cc(Cl)ccc2Oc2ccccc2)n1 | inactive
Nc1nnc(-c2ccc(Cl)c(Cl)c2)s1 | inconclusive [inhibitor, single point]
CC1(C)CC(=O)C(C(=O)/C=C/NCCc2ccccc2)C(=O)C1 | inconclusive [inhibitor, single point]
CCCCC(=O)N1CCCC(c2nc3c(nnn3Cc3cc(C)ccc3C)c(=O)[nH]2)C1 (stereo not given) | inconclusive [inhibitor, single point]
CCOc1ccc(NC(=O)CSc2nc3ccccc3c(=O)n2CCNC(C)=O)cc1 | inactive
OCCNCCSc1ccc(Cl)cc1 | inconclusive [inhibitor, single point]
CC[C@@H](c1ccccc1)n1c(=O)n2n(c1=O)[C@H]1[C@H](O)[C@H]3O[C@@H]3/C(=N/OC[C@@H](O)COCc3ccco3)[C@@H]1CC2 | inconclusive [inhibitor, single point]
O=C(CN1C(=O)CCSc2ccccc21)Nc1ccccc1 | inactive
CC1CCC(NC(=O)C2c3ccccc3C(=O)N2Cc2cccs2)CC1 (stereo not given) | inconclusive [inhibitor, single point]
COc1ccc(NC(=O)N2CC[C@@]3(CCCN(C(=O)c4csnn4)C3)C2)cc1 | inconclusive [inhibitor, single point]
CC(=O)N1CCC(=NNC(=O)CSc2cc(C)c(Br)cc2C)CC1 | inconclusive [inhibitor, single point]
COC(=O)c1ccccc1NC(=O)C1CCN(S(=O)(=O)c2cc(OC)ccc2OC)CC1 | inconclusive [inhibitor, partial curve]
Cc1cc(NC(=O)C23CC4CC(C2)CC(n2cnc([N+](=O)[O-])n2)(C4)C3)no1 | inactive
Nc1c(N2CCN(c3ccccc3)CC2)c2ccccc2oc1=O | inconclusive [inhibitor, single point]
COc1cccc(/C=C/C(=O)OCC(=O)NCC2CCCO2)c1 (stereo not given) | inconclusive [inhibitor, single point]
Cn1c(O)c(N=NC(=O)c2cc(-c3cccs3)nc3ccccc23)c2ccccc21 | inconclusive [inhibitor, partial curve]
O=C(c1ccccc1)c1cccs1 | inactive
CCCC(=O)n1nc(-c2cccnc2)nc1NCc1ccc(OC)cc1 | inconclusive [inhibitor, partial curve]
